Test results taken from the supplement of paper PMC12423691.
Some of the results follow. Binding of human transcription factors and regulators to the viral nucleoprotein by AlphaScreen, crude cell-free proteins, amounts not normalised, one pass. Fold of the Venus control; higher = more signal. No active / inactive call. Single-pass screen; sequences are the whole Swiss-Prot entries looked up by name.

B1: PIAS4, Q8N2W9 (protein)
chain: MAAELVEAKNMVMSFRVSDLQMLLGFVGRSKSGLKHELVTRALQLVQFDCSPELFKKIKELYETRYAKKNSEPAPQPHRPLDPLTMHSTYDRAGAVPRTPLAGPNIDYPVLYGKYLNGLGRLPAKTLKPEVRLVKLPFFNMLDELLKPTELVPQNNEKLQESPCIFALTPRQVELIRNSRELQPGVKAVQVVLRICYSDTSCPQEDQYPPNIAVKVNHSYCSVPGYYPSNKPGVEPKRPCRPINLTHLMYLSSATNRITVTWGNYGKSYSVALYLVRQLTSSELLQRLKTIGVKHPELCKALVKEKLRLDPDSEIATTGVRVSLICPLVKMRLSVPCRAETCAHLQCFDAVFYLQMNEKKPTWMCPVCDKPAPYDQLIIDGLLSKILSECEDADEIEYLVDGSWCPIRAEKERSCSPQGAILVLGPSDANGLLPAPSVNGSGALGSTGGGGPVGSMENGKPGADVVDLTLDSSSSSEDEEEEEEEEEDEDEEGPRPKRRCPFQKGLVPAC
B2: ID1, P41134 (protein)
chain: MKVASGSTATAAAGPSCALKAGKTASGAGEVVRCLSEQSVAISRCAGGAGARLPALLDEQQVNVLLYDMNGCYSRLKELVPTLPQNRKVSKVEILQHVIDYIRDLQLELNSESEVGTPGGRGLPVRAPLSTLNGEISALTAEAACVPADDRILCR
B3: POU6F2, P78424 (protein)
chain: MSALLQDPMIAGQVSKPLLSVRSEMNAELRGEDKAATSDSELNEPLLAPVESNDSEDTPSKLFGARGNPALSDPGTPDQHQASQTHPPFPVGPQPLLTAQQLASAVAGVMPGGPPALNQPILIPFNMAGQLGGQQGLVLTLPTANLTNIQGLVAAAAAGGIMTLPLQNLQATSSLNSQLQQLQLQLQQQQQQQQQQPPPSTNQHPQPAPQAPSQSQQQPLQPTPPQQPPPASQQPPAPTSQLQQAPQPQQHQPHSHSQNQNQPSPTQQSSSPPQKPSQSPGHGLPSPLTPPNPLQLVNNPLASQAAAAAAAMSSIASSQAFGNALSSLQGVTGQLVTNAQGQIIGTIPLMPNPGPSSQAASGTQGLQVQPITPQLLTNAQGQIIATVIGNQILPVINTQGITLSPIKPGQQLHQPSQTSVGQAASQGNLLHLAHSQASMSQSPVRQASSSSSSSSSSSALSVGQLVSNPQTAAGEVDGVNLEEIREFAKAFKIRRLSLGLTQTQVGQALSATEGPAYSQSAICRHTILRSHFFLPQEAQENTIASSLTAKLNPGLLYPARFEKLDITPKSAQKIKPVLERWMAEAEARHRAGMQNLTEFIGSEPSKKRKRRTSFTPQALEILNAHFEKNTHPSGQEMTEIAEKLNYDREVVRVWFCNKRQALKNTIKRLKQHEPATAVPLEPLTDSLEENS
B4: NR0B2, Q15466 (protein)
chain: MSTSQPGACPCQGAASRPAILYALLSSSLKAVPRPRSRCLCRQHRPVQLCAPHRTCREALDVLAKTVAFLRNLPSFWQLPPQDQRRLLQGCWGPLFLLGLAQDAVTFEVAEAPVPSILKKILLEEPSSSGGSGQLPDRPQPSLAAVQWLQCCLESFWSLELSPKEYACLKGTILFNPDVPGLQAASHIGHLQQEAHWVLCEVLEPWCPAAQGRLTRVLLTASTLKSIPTSLLGDLFFRPIIGDVDIAGLLGDMLLLR
B5: CYTL1, Q9NRR1 (protein)
chain: MRTPGPLPVLLLLLAGAPAARPTPPTCYSRMRALSQEITRDFNLLQVSEPSEPCVRYLPRLYLDIHNYCVLDKLRDFVASPPCWKVAQVDSLKDKARKLYTIMNSFCRRDLVFLLDDCNALEYPIPVTTVLPDRQR
B6: MSC, O60682 (protein)
chain: MSTGSVSDPEEMELRGLQREYPVPASKRPPLRGVERSYASPSDNSSAEEEDPDGEEERCALGTAGSAEGCKRKRPRVAGGGGAGGSAGGGGKKPLPAKGSAAECKQSQRNAANARERARMRVLSKAFSRLKTSLPWVPPDTKLSKLDTLRLASSYIAHLRQLLQEDRYENGYVHPVNLTWPFVVSGRPDSDTKEVSAANRLCGTTA
B7: IKZF1, Q13422 (protein)
chain: MDADEGQDMSQVSGKESPPVSDTPDEGDEPMPIPEDLSTTSGGQQSSKSDRVVASNVKVETQSDEENGRACEMNGEECAEDLRMLDASGEKMNGSHRDQGSSALSGVGGIRLPNGKLKCDICGIICIGPNVLMVHKRSHTGERPFQCNQCGASFTQKGNLLRHIKLHSGEKPFKCHLCNYACRRRDALTGHLRTHSVGKPHKCGYCGRSYKQRSSLEEHKERCHNYLESMGLPGTLYPVIKEETNHSEMAEDLCKIGSERSLVLDRLASNVAKRKSSMPQKFLGDKGLSDTPYDSSASYEKENEMMKSHVMDQAINNAINYLGAESLRPLVQTPPGGSEVVPVISPMYQLHKPLAEGTPRSNHSAQDSAVENLLLLSKAKLVPSEREASPSNSCQDSTDTESNNEEQRSGLIYLTNHIAPHARNGLSLKEEHRAYDLLRAASENSQDALRVVSTSGEQMKVYKCEHCRVLFLDHVMYTIHMGCHGFRDPFECNMCGYHSQDRYEFSSHITRGEHRFHMS
B8: HMGB1, P09429 (protein)
chain: MGKGDPKKPRGKMSSYAFFVQTCREEHKKKHPDASVNFSEFSKKCSERWKTMSAKEKGKFEDMAKADKARYEREMKTYIPPKGETKKKFKDPNAPKRPPSAFFLFCSEYRPKIKGEHPGLSIGDVAKKLGEMWNNTAADDKQPYEKKAAKLKEKYEKDIAAYRAKGKPDAAKKGVVKAEKSKKKKEEEEDEEDEEDEEEEEDEEDEDEEEDDDDE
B9: BATF, Q16520 (protein)
chain: MPHSSDSSDSSFSRSPPPGKQDSSDDVRRVQRREKNRIAAQKSRQRQTQKADTLHLESEDLEKQNAALRKEIKQLTEELKYFTSVLNSHEPLCSVLAASTPSPPEVVYSAHAFHQPHVSSPRFQP
B10: NUCKS1, Q9H1E3 (protein)
chain: MSRPVRNRKVVDYSQFQESDDADEDYGRDSGPPTKKIRSSPREAKNKRRSGKNSQEDSEDSEDKDVKTKKDDSHSAEDSEDEKEDHKNVRQQRQAASKAASKQREMLMEDVGSEEEQEEEDEAPFQEKDSGSDEDFLMEDDDDSDYGSSKKKNKKMVKKSKPERKEKKMPKPRLKATVTPSPVKGKGKVGRPTASKASKEKTPSPKEEDEEPESPPEKKTSTSPPPEKSGDEGSEDEAPSGED
B11: MEF2D, Q14814 (protein)
chain: MGRKKIQIQRITDERNRQVTFTKRKFGLMKKAYELSVLCDCEIALIIFNHSNKLFQYASTDMDKVLLKYTEYNEPHESRTNADIIETLRKKGFNGCDSPEPDGEDSLEQSPLLEDKYRRASEELDGLFRRYGSTVPAPNFAMPVTVPVSNQSSLQFSNPSGSLVTPSLVTSSLTDPRLLSPQQPALQRNSVSPGLPQRPASAGAMLGGDLNSANGACPSPVGNGYVSARASPGLLPVANGNSLNKVIPAKSPPPPTHSTQLGAPSRKPDLRVITSQAGKGLMHHLTEDHLDLNNAQRLGVSQSTHSLTTPVVSVATPSLLSQGLPFSSMPTAYNTDYQLTSAELSSLPAFSSPGGLSLGNVTAWQQPQQPQQPQQPQPPQQQPPQPQQPQPQQPQQPQQPPQQQSHLVPVSLSNLIPGSPLPHVGAALTVTTHPHISIKSEPVSPSRERSPAPPPPAVFPAARPEPGDGLSSPAGGSYETGDRDDGRGDFGPTLGLLRPAPEPEAEGSAVKRMRLDTWTLK
B12: ZSCAN9, O15535 (protein)
chain: MNTNSKEVLSLGVQVPEAWEELLTMKVEAKSHLQWQESRLKRSNPLAREIFRRHFRQLCYQETPGPREALTRLQELCYQWLRPHVSTKEQILDLLVLEQFLSILPKELQGWVREHCPESGEEAVILLEDLERELDEPQHEMVAHRHRQEVLCKEMVPLAEQTPLTLQSQPKEPQLTCDSAQKCHSIGETDEVTKTEDRELVLRKDCPKIVEPHGKMFNEQTWEVSQQDPSHGEVGEHKDRIERQWGNLLGEGQHKCDECGKSFTQSSGLIRHQRIHTGERPYECNECGKAFSRSSGLFNHRGIHNIQKRYHCKECGKVFSQSAGLIQHQRIHKGEKPYQCSQCSKSYSRRSFLIEHQRSHTGERPHQCIECGKSFNRHCNLIRHQKIHTVAELV
B13: ZSCAN5B, A6NJL1 (protein)
chain: MAANWTLSWGQGGPCNSPGSDTPRSVASPETQLGNHDRNPETWHMNFRMFSCPEESDPIQALRKLTELCHLWLRPDLHTKEQILDMLVMEQFMISMPQELQVLVKVNGVQSCKDLEDLLRNNRRPKKWSIVNLLGKEYLMLNSDVEMAEAPASVRDDPRDVSSQWASSVNQMHPGTGQARREQQILPRVAALSRRQGEDFLLHKSIDVTGDPNSPRPKQTLEKDLKENREENPGLSSPEPQLPKSPNLVRAKEGKEPQKRASVENVDADTPSACVVEREALTHSGNRGDALNLSSPKRSKPDASSISQEEPQGEATPVGNRESPGQAEINPVHSPGPAGPVSHPDGQEAKALPPFACDVCNKSFKYFSQLSIHRRSHTGDRPFQCDLCRKRFLQPSDLRVHQRVHTGERPYMCDVCQKRFAHESTLQGHKRIHTGERPFKCKYCSKVFSHKGNLNVHQRTHSGEKPYKCPTCQKAFRQLGTFKRHLKTHRETTSQ

Biological target: nucleoprotein N of Crimean-Congo hemorrhagic fever virus
Test: AlphaScreen luminescence signal relative to Venus negative control (fold); higher = stronger binding to CCHFV N
Experimental: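 AlphaScreen binding of cell-free made, FLAG-GST-tagged human transcription factors and regulators (crude translation products) to biotinylated N protein; signal as fold of the FLAG-GST-Venus control. One pass.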

| Binder | AlphaScreen luminescence signal |
| --- | --- |
| B1 | 3.63 |
| B2 | 1.35 |
| B3 | 2.28 |
| B4 | 2.14 |
| B5 | 1.63 |
| B6 | 3.35 |
| B7 | 1.72 |
| B8 | 2.33 |
| B9 | 1.21 |
| B10 | 1.12 |
| B11 | 1.81 |
| B12 | 2.56 |
| B13 | 5.58 |
